# Data: PubChem BioAssay AID1508642 (National Center for Advancing Translational Sciences (NCATS), 2021)
# Among all 43,000 compounds or so, about 200 (0.47%) were called active. Roughly 12% stayed inconclusive and do not appear here. Calls come from the whole dose curve; as a rule, active = well fitted cell-killing curve with a large enough effect; inconclusive = small, poorly fitted or top-dose-only effect, or effect the other way; inactive = flat fitted curve, though single readings scatter. Some of the results follow.
# Experiment: Cell viability qHTS assay in S16 Pmp22-F2sN cells; note: nearly all actives have a fitted effect of over 65% in size
# Conditions: S16 Pmp22-F2sN Schwann cells viability, CellTiter-Glo, 24 h; series mostly up to 57.5 µM; activity change, negative = cytotoxicity: at the top concentration
# Method in brief: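 Viability was measured by CellTiter-Glo luminescence (15 min, room temperature). This followed 24 h at 37 °C of compound exposure (23 nL pin transfer) in S16 Pmp22-F2sN Schwann cells, 500-1,000 per well.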
# % is set by controls: 0 for no effect and ±100 for the full control effect.
row,Compound,"activity change, negative = cytotoxicity"
1,COc1ccc(-c2nc(S(=O)(=O)c3ccccc3)c(N3CCC(C)CC3)o2)cc1,inactive: -1.84%
2,CN1C(=O)c2ccccc2Sc2ccc(NC(=O)N3CCN(c4ccc(F)cc4)CC3)cc21,inactive: -27.9%
3,COc1ccc(C(=O)NCCc2csc(-c3ccc(Cl)cc3)n2)c(OC)c1,inactive: 4.31%
4,CSc1ccc(CCNC(=O)CN2C(=O)COc3ccc(S(=O)(=O)N4CCCCCC4)cc32)cc1,inactive: 2.73%
5,Cc1ccc(Cl)cc1-n1c(SCC(=O)NCc2ccccc2)nc2n[nH]c(C)c2c1=N,inactive: -12.2%
6,COc1ccc(CCNC(=O)CN(c2ccccc2)S(=O)(=O)N(C)C)cc1,inactive: 0.332%
7,COc1ccccc1-c1nn(CCC(=O)Nc2ccccc2)c2nc(C)cc(C)c12,inactive: 7.47%
8,Cc1ccc2nc(-c3ccc(C)s3)c(Nc3ccc4c(c3)OCCO4)n2c1,inactive: 17%
9,O=C(Nc1ccc(F)c(F)c1)C(c1ccccc1)N1Cc2ccccc2C1=O (configuration not stated),inactive: 2.17%
10,COc1ccccc1C(=O)Nc1ccc(-c2cc(C(F)(F)F)nn2-c2ccccc2)cc1,inactive: -14.5%
11,CCOc1ccccc1NC(=O)Cn1c(=O)n(CCCC(=O)NCc2ccc(C)cc2)c(=O)c2ccccc21,inactive: 26.2%
12,Cc1ccc(C(=O)N2CCN(CCc3ccncc3)CC2)cc1,inactive: 11.7%
13,Cc1nn(C(C)C(=O)NCc2ccco2)c(=O)c2nn(-c3ccccc3)c(C)c12 (configuration not stated),inactive: -2.85%
14,COc1ccccc1OCC(=O)NCCS(=O)(=O)N1CCN(c2ccccc2OC)CC1,inactive: -0.203%
15,Cc1cccc2sc(N(Cc3cccnc3)C(=O)c3ccco3)nc12,inactive: -2.65%
16,CCC(C(=O)NCCC(C)C)N(C(=O)Cn1nnc(-c2ccc(C)cc2)n1)c1cccc(O)c1 (configuration not stated),inactive: -28%
17,COc1ccc(Cl)cc1NC(=O)Cn1c(=O)n(Cc2ccc(F)cc2)c(=O)c2cccnc21,inactive: 15.5%
18,Cc1ccccc1OCCSc1nnc(-c2cccs2)o1,inactive: 2.98%
19,CCOc1ccc(NC(=O)C(C)n2c(=O)cc(-c3ccccc3)c3c(C)nn(C)c32)cc1 (configuration not stated),inactive: 14.3%
20,COc1ccccc1N1CCN(C(=O)Cn2c(=O)nc(-c3ccccc3)c3ccccc32)CC1,inactive: -20.2%
21,O=C(CN1C(=O)COc2ccc(S(=O)(=O)NC3CCCC3)cc21)NCc1ccccc1Cl,inactive: 3.49%
22,CCOC(=O)c1ccc(NC(=O)C2=C(C)C(=O)OC23CCN(C(C)=O)CC3)cc1,inactive: 0.818%
23,Cc1ccc(Cl)cc1NC(=O)CCn1cnc2ccccc2c1=O,inactive: -1.42%
24,COc1cc(Nc2nc3ccc(Cl)cc3nc2-n2nc(C)cc2C)cc(OC)c1,inactive: 4.42%
25,CCOC(=O)c1cccc(NC(=O)c2cc(C)nc3c2c(C)nn3-c2ccc(C)cc2)c1,inactive: -2.28%

row,Compound,"activity change, negative = cytotoxicity"
1,Cc1cc(C)cc(NC(=O)C(=O)NCC(c2cccnc2)N2CCOCC2)c1 (configuration not stated),inactive: -11.1%
2,CCc1cccc(C)c1NC(=O)CSc1n[nH]c(-c2ccccc2)n1,inactive: -9.76%
3,Cn1ncc2c(Nc3cccc(C#N)c3)ncnc21,inactive: -6.71%
4,O=C(CCn1c(=O)c2cccn2c2cccnc21)NCc1cccc(Br)c1,inactive: 13.9%
5,CC(=O)c1cc2c(cc1N/C(=N/S(=O)(=O)c1ccc(C)cc1)c1ccc(Cl)cc1)OCO2,inactive: -6.62%
6,Cc1ccc2c(=O)cc(C(=O)Nc3ccc(S(=O)(=O)N4CCCC(C)C4)cc3)oc2c1C (configuration not stated),inactive: 2.84%
7,CCOc1ccc(NC(=O)c2oc3ccccc3c2NC(=O)C(C)Oc2ccccc2)cc1 (configuration not stated),inactive: 3.08%
8,Cc1ccc(C)c(CN2C(=O)c3ccccc3S(=O)(=O)c3ccc(C(=O)N4CCN(Cc5ccccc5)CC4)cc32)c1,inactive: -9.89%
9,Cc1cccc(C)c1NC(=O)CSc1nccn1C,inactive: 5.55%
10,CC(C)Cn1c(SCc2cccc(F)c2)nc2ccsc2c1=O,inactive: 3.32%
11,CCOCCCn1c(SCC(=O)Nc2ccccc2OC)nc2c(oc3ccccc32)c1=O,inactive: -10.5%
12,COc1ccccc1C1=Nn2c(nc3sc(C(=O)Nc4ccccc4Cl)c(C)c3c2=O)SC1,inactive: 3.23%
13,Cc1ccc(C)c(C(=O)N2CCC(c3nc4c(nnn4Cc4ccccc4)c(=O)[nH]3)CC2)c1,inactive: 12.2%
14,CC(NC(=O)c1c(O)nc2ccccn2c1=O)c1ccccc1 (configuration not stated),inactive: -13.6%
15,CCOc1ccccc1N1CC(c2nc3ccccc3n2CCCCOc2ccccc2)CC1=O (configuration not stated),inactive: 0.0605%
16,COc1ccc(OC)c(C2CC(=O)Nc3ccc4ccccc4c32)c1 (configuration not stated),inactive: -22.9%
17,COc1ccc(-c2cn3c(n2)sc2cc(C(=O)NCc4ccccc4)ccc23)cc1,inactive: -2.84%
18,COc1ccc(Cc2nc3ccc(C(=O)NCCc4ccc(Cl)cc4)cc3o2)cc1,inactive: -3.03%
19,CCN(C(=O)CCS(=O)(=O)c1cc(Br)cc2c1N(C(=O)C1CC1)CC2)c1cccc(C)c1,inactive: -5.89%
20,O=C(NC1CC(=O)N(c2ccc(Cl)cc2)C1)C1CCCCC1 (configuration not stated),inactive: 6.53%
21,CCOc1ccc(Nc2oc(/C=C/c3cc(OC)c(OC)c(OC)c3)nc2C#N)cc1,inactive: -1.31%
22,COc1ccc(NC(=O)CN(C)S(=O)(=O)c2cnc[nH]2)cc1,inactive: -3.13%
23,CCOc1ccc(NC(=O)CSc2nc3ccccc3c(=O)n2CCC(=O)NC2CCCCC2)cc1,inactive: -17.7%
24,O=C(COC(=O)c1cc(-c2cccs2)nc2ccccc12)c1ccc(Cl)cc1,inactive: 9.61%
25,COc1cc(C(=O)NCCSc2c(C)[nH]c3ccccc23)cc(OC)c1OC,inactive: 0.232%

row,Compound,"activity change, negative = cytotoxicity"
1,O=C(O)CSc1nc2ccccc2nc1N1CCCCC1,inactive: -4.72%
2,COc1ccc(CCNC(=O)CSc2cn(CCNC(=O)c3ccc(OC)c(OC)c3)c3ccccc23)cc1OC,inactive: 8.36%
3,COC(=O)c1c(NC(=O)/C(C#N)=C/c2ccc(OC)cc2)sc2c1C(C(=O)OC)CC2 (configuration not stated),inactive: 5.28%
4,CCc1ccccc1NC(=O)[C@H](Cc1ccccc1)N1Cc2ccccc2C1=O,inactive: 4.17%
5,COc1ccc(-c2noc(C3CC(=O)N(c4ccc5c(c4)OCCO5)C3)n2)c(OC)c1 (configuration not stated),inactive: -14.3%
6,CCOC(=O)c1sc(NC(=O)c2nc3nc(C)cc(C(F)F)n3n2)c(C(=O)OC)c1C,inactive: 10.3%
7,CCC(C)NC(=O)Cn1cnc2sc(C)c(S(=O)(=O)N3CCN(c4ccccc4OC)CC3)c2c1=O (configuration not stated),inactive: 7.73%
8,Cc1c(C(=O)Nc2cccc(Cl)c2)oc2ccc(S(=O)(=O)N3CCOCC3)cc12,inactive: 1.88%
9,COc1cccc(NC(=O)N2CCC(CN3CCOCC3)CC2)c1,inactive: -11.7%
10,CCc1ccccc1NC(=O)Cn1c(=O)ccc2cc(S(=O)(=O)N3CCC(C)CC3)ccc21,inactive: 1.51%
11,Cc1ccc(CCNC(=O)CN2N=C(c3ccc(C)cc3)CCC2=O)cc1,inactive: 7.92%
12,Cc1cccc(N2CCN(S(=O)(=O)c3c(C)nc4scc(C)n4c3=O)CC2C)c1 (configuration not stated),inactive: -2.65%
13,Cn1nc(C(=O)Nc2ccccc2C#N)c2c1-c1ccccc1SC2,inactive: 19.2%
14,CCOc1cccc(C2c3c(oc4cc(C)c(C)cc4c3=O)C(=O)N2c2nc(C)c(C)s2)c1 (configuration not stated),inactive: -13.8%
15,CC1CCN(S(=O)(=O)c2ccc3c(c2)N(CC(=O)Nc2ccc(F)c(Cl)c2)C(=O)CO3)CC1,inactive: 0.211%
16,COc1ccc(NC(=O)c2oc3ccccc3c2NC(=O)Cc2ccc(F)cc2)c(OC)c1,inactive: 1.87%
17,Cc1cc(=O)[nH]c(SCC(=O)N2CCN(c3ccccc3)CC2)n1,inactive: 11%
18,COc1ccc(-c2nc3ccc(C(=O)NCc4ccc(C)cc4)cc3nc2-c2ccc(OC)cc2)cc1,inactive: -10.4%
19,COc1ccc(Cl)cc1-n1c(CCC(=O)O)ccc1-c1ccc(C)cc1,inactive: -0.171%
20,Cc1ccc(OCCn2c(COc3ccc(Cl)cc3)nc3ccccc32)cc1,inactive: 2.5%
21,CCC(=O)N1CCc2cc(CNS(=O)(=O)c3cc(Cl)ccc3OC)ccc21,inactive: 10.7%
22,COc1ccc(Br)cc1CNC(=O)CCSCc1ccc(Cl)cc1,inactive: -6.86%
23,Cc1nn(CC(=O)N2CCN(c3ccccc3)CC2)c(=O)c2cc3sccc3n12,inactive: -2.63%
24,CCCCCSc1nnc2c(n1)OC(c1ccc(C)s1)N(C(C)=O)c1ccccc1-2 (configuration not stated),inactive: -20.4%
25,COc1ccc(S(=O)(=O)NC2(C(F)(F)F)NC(=O)N(CCc3ccccc3)C2=O)cc1 (configuration not stated),inactive: 3.35%

row,Compound,"activity change, negative = cytotoxicity"
1,COc1ccccc1NC(=O)CN1C(=O)C(c2ccc(F)cc2)=NC1(C)C,inactive: -0.415%
2,Cc1cccc(N2CCN(C(=O)Nc3ccc(F)cc3)CC2C)c1 (configuration not stated),inactive: -5.3%
3,Cc1ccccc1NC(=O)Nc1nnc(N(C)Cc2ccccc2)s1,inactive: -6.21%
4,Oc1ccccc1-c1nc(/C=C/c2ccc(F)cc2)no1,inactive: -4.03%
5,Cc1c(Cl)cccc1N1CC(c2nc3ccccc3n2Cc2ccccc2F)CC1=O (configuration not stated),inactive: -3.79%
6,O=c1c2oc3ccccc3c2n(Cc2ccccc2F)c(=O)n1Cc1ccco1,inactive: -4.11%
7,Cc1c(CNCCCc2ccccc2)c(C(=O)O)c(C)n1Cc1ccc(Cl)cc1,inactive: -2.87%
8,Cc1ccc(Cn2cc(CCC(=O)NC3CCCCC3)c3ccccc32)cc1,inactive: -9.52%
9,Cc1cc(=O)[nH]c2nnc(SCc3cccc(F)c3)n12,inactive: -23.1%
10,CCOc1ccc(-c2ccc(NS(=O)(=O)c3cc(C)ccc3OC)cc2)nn1,inactive: -17.8%
11,Cc1ccc(N2CCN(C(=O)c3nn(C)c4c3CS(=O)(=O)c3ccccc3-4)CC2C)cc1 (configuration not stated),inactive: -17.6%
12,Cc1cccc(NC(=O)Cn2c(=O)n(Cc3ccc4c(c3)OCO4)c(=O)c3ccccc32)c1,inactive: 0.406%
13,CCS(=O)(=O)c1c(Nc2ccc(F)c(Cl)c2)sc(C(=O)c2ccccc2)c1N,inactive: -9.54%
14,COc1ccc(-n2cc3c(c2-c2cccc(Br)c2)c(=O)n(C)c(=O)n3C)cc1OC,inactive: 7.32%
15,COc1cccc(NC(=O)Cn2c(=O)n(Cc3ccccc3)c(=O)c3c4c(sc32)CN(C(C)=O)CC4)c1,inactive: -7.04%
16,COC(=O)c1ccccc1NC(=O)c1nc(SCc2ccccc2C)ncc1Cl,inactive: -3.65%
17,Cc1cc(C)cc(C(=O)Nc2ccc(-c3cn4cccnc4n3)cc2)c1,inactive: -7.23%
18,O=C(O)c1cccc(NC(=O)c2cccc(S(=O)(=O)Nc3cccc(C(=O)O)c3)c2)c1,inactive: -4.74%
19,CCn1c(=O)c2cc(C(=O)N(C)c3cc(C)ccc3C)sc2c2ccccc21,inactive: 4.54%
20,O=C(CCSCc1ccccc1F)N1CCN(c2ccc(F)cc2)CC1,inactive: 5.21%
21,CCOc1ccccc1NC(=O)Cn1c(=O)n(Cc2ccc(C(=O)NCCCOC)cc2)c(=O)c2ccccc21,inactive: -13.8%
22,COc1cc(OC)c(NC(=O)c2oc3ccc4c(c3c2C)C(=O)CC(C)(C)O4)cc1Cl,inactive: 3.75%
